T1: UNK ZnF1-3 (human, UniProt Q9C0B0 31-174)
T1 sequence: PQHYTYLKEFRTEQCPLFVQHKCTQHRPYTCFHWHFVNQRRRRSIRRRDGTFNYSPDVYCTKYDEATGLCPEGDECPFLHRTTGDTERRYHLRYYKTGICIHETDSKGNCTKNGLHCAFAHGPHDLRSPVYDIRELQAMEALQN

B1: chr3:65185704:65185705:-_ENSMUSG00000027828_ENSMUST00000029414|mus_mus|FALSE|FALSE (ssRNA)
RNA: GGGAGUUCUACAGUCCGACGAUCCUCCUUGCCUUUUAAUAAAAUGCCCUGGUACUCUGAGUUUCCCUUUCAAUUCAUUUAAUUUCAGCAAUCUGUCAAAAACAGCCAAUAAACAAACACUGAAUUACAUUCUACUGCAUUUUUCAACAGAGGAUUGAGCAUCA
B2: chr1:94914716:94914717:-_ENSMUSG00000014602_ENSMUST00000171796|mus_hu|FALSE|FALSE (ssRNA)
RNA: GGGAGUUCUACAGUCCGACGAUCUAAAUAGAACAAGUCUUAUAGUUAAUUUCCGAGUUGACUGUUUCAAUGUCACUAACUAACGUAUAUUAAUUAUAAGUCUGUCUAUGCUUAAAAAAAUAUUAGAACGGCAGCAAGAACCCCCAACAGAGGAUUGAGCAUCA
B3: chr6:40426449:40426450:+_ENSMUSG00000029911_ENSMUST00000121360|perfect_dup|FALSE|FALSE (ssRNA)
RNA: GGGAGUUCUACAGUCCGACGAUCAACGUCACCCAUUUGGUAUACUUCACUAUCCCCUGAUCGCCACAUCUCAUUUGUUGCUAGAGAAAAUAUUGUGACUGGGUUUUUUCCUUCCACCUGUCUCAUGACAGGGUCCUGACCUACCAACAGAGGAUUGAGCAUCA
B4: chrX:71549400:71549401:+_ENSMUSG00000019087_ENSMUST00000019231|mus_hu|mus_mus_mus_hu_False|38_98 (ssRNA)
RNA: GGGAGUUCUACAGUCCGACGAUCGCAGUAGGAAGAGCAAACCUUUCCAGUCCAGUGCGCUGCAGGGUGGGAAAGCAACAACACGGACACCGUCCCACCUCAAUUCCCCCCACUGGCACAGGGUCACACAAUCUGGGUCAAAGACAACAGAGGAUUGAGCAUCA
B5: 3496540_3496660_1799_CDS_ENSMUSG00000037486_ENSMUST00000111215|mouse|control|control (ssRNA)
RNA: GGGAGUUCUACAGUCCGACGAUCAGAUUUGCUUGGGGAUAUAGCUAACGCUUCUUGGUUCUCACUUUUGUUAUUACGAGAAGUUGUGGUUACAUGAUUUUCUUUCUCAGAUUCUUGUUCAGCACAGGCAACAGGCUUCUGCUCCAACAGAGGAUUGAGCAUCA
B6: chr2:216981417:216981418:+_ENSG00000079246_ENST00000392132|hu_hu|hu_hu_hu_mus_True|48_88 (ssRNA)
RNA: GGGAGUUCUACAGUCCGACGAUCCUGAUACUGGUCCUUGCCAGCAAGGGGAUUGUCAGUGCCAUCUGUGCCAUAGAGGACUAACGCAAUCUCAUCCUUGCUCUCCGAAAAUACCUGUCGUUGGACAAACAUAGUCAUCACUUUCAACAGAGGAUUGAGCAUCA
B7: chr4:128759998:128759999:+_ENSMUSG00000028793_ENSMUST00000168461|mus_mus|FALSE|FALSE (ssRNA)
RNA: GGGAGUUCUACAGUCCGACGAUCUGCACCAAGACUGGCUGUGUCUUUGGGGAAAAUUUCCUUUUGGACAUCAGCUUGAACUUCUAACCGGCUGUACUUUCCCUUGCCGCUGGAGAGAAUACCACCACUCAGUGUGCCCCCUGACAACAGAGGAUUGAGCAUCA
B8: chrX:71549762:71549763:+_ENSMUSG00000019087_ENSMUST00000019231|mus_mus|mus_mus_mus_hu_False|8_58 (ssRNA)
RNA: GGGAGUUCUACAGUCCGACGAUCAAACCCGUGUACUUCUUAUUGUUAGCACAACAUCACCAGAAAACGAUAACGACAGCUAAGCUGGACAGACAGUUAAGUAGUACUUCCACACUCCCAAACUCAGAGGAACCUCAAACCUUACAACAGAGGAUUGAGCAUCA
B9: chr11:51926749:51926750:+_ENSMUSG00000020349_ENSMUST00000020608|perfect_dup|motif|central (ssRNA)
RNA: GGGAGUUCUACAGUCCGACGAUCGUCAACAUAAUCUCCCAUAAACAAGUAAUUUGUAUCUGGUGAUUUGCCACCAAUUCGGAACAGUUCCAUGAGAUCAUGAAAUUGCCCAUGCACAUCUCCACAGACAGUAACUGGACAUCGCAACAGAGGAUUGAGCAUCA
B10: 129323141_129323261_3732_3pUTR_ENSMUSG00000003731_ENSMUST00000102590|mouse|control|control (ssRNA)
RNA: GGGAGUUCUACAGUCCGACGAUCUAACUGUCACUUGAGAGGUUCAGGGGUCUACUCUUCAGAUAAGGACGAUGAUGGCUUCAUAGAGGACUUUUCUUUGAACUAGGAGCAGUUUCAGUCAGGUUAAAAACAAAAGGGCCAGCACAACAGAGGAUUGAGCAUCA
B11: chr14:78183846:78183847:+_ENSG00000119705_ENST00000557342|hu_hu|hu_hu_hu_mus_False|88_98 (ssRNA)
RNA: GGGAGUUCUACAGUCCGACGAUCUCUCAGAAAUCUUUCUUUCUUUUCAUCAUCAGAUCCGUGCAAAGCCUUUGCUCUUUGAGCUUGAACGUGGAUCUAUGGGAGGGAAAGCACUGUCAGAAAAGGUAAUUUUUUUUUUAAAGACAACAGAGGAUUGAGCAUCA
B12: chr8:104447970:104447971:+_ENSG00000164934_ENST00000297579|hu_hu|hu_hu_hu_mus_False|48_58 (ssRNA)
RNA: GGGAGUUCUACAGUCCGACGAUCAUACACUUCCCUGCUUCGGCUCUUGUCCACAGGAAAGAUUCUAAUAGACUUAUCGAAACUAGCAGACACAAACUCCUUCCCAGUGGGAGAGUAGUCCACAUCAAGUACUGCAGACACGUGCAACAGAGGAUUGAGCAUCA
B13: chr2:74706439:74706440:+_ENSMUSG00000027099_ENSMUST00000155844|mus_mus|FALSE|FALSE (ssRNA)
RNA: GGGAGUUCUACAGUCCGACGAUCGUCUGAUCUCAAGCCUUAUCCUCUUAUACCUCUGCAGUCAGCAGCAUAUUGUUGACUAAUUCCAUGUAGGCUUUCAUUUCUGCUUUUUGGACUUCAUCCAACCCAUCACUAAGAGAAUGGCAACAGAGGAUUGAGCAUCA
B14: chr20:35282059:35282060:-_ENSG00000101079_ENST00000349004|hu_hu|FALSE|FALSE (ssRNA)
RNA: GGGAGUUCUACAGUCCGACGAUCGCUGGUGACAGACCGGCUGAAGGGACUUUCUCCAGAGCCGAGGCUACUCGAGGUUGAGUGGGUUCGUGAUCGGGCGAGCCGAGUCAUGCUGGCAGAUGGUAUGUAGCCCAUUCCCUGCAACAACAGAGGAUUGAGCAUCA
B15: chr2:78753848:78753849:+_ENSMUSG00000027011_ENSMUST00000028398|mus_mus|motif|central (ssRNA)
RNA: GGGAGUUCUACAGUCCGACGAUCGUUAUCUCCUUUAGGCCCAGCACUGCAGUUAGGAGGAGGAUCAAGGGUUAUCUCUGCGGGCUCCUUCUGAAUUCUUUUAGCACUAGUGGAUAACUUAGCAGUCGUUUUGCUAGAGAGUUUCAACAGAGGAUUGAGCAUCA
B16: chr6:114281168:114281169:-_ENSG00000196591_ENST00000368632|hu_hu|hu_hu_hu_mus_True|1_38 (ssRNA)
RNA: GGGAGUUCUACAGUCCGACGAUCUUCCAUUUUUCGGUAUAAACCAUAAUUUAGCAGCAAGUUAUGAGUCAUCCGGAUUCUAUGAGGCUUCAUGGGAUGACCCUGUCCAUAAUAAUAAUUGCCAAUAUCACCAUCAUACUAGAACAACAGAGGAUUGAGCAUCA
B17: chr17:74699132:74699133:-_ENSMUSG00000024067_ENSMUST00000112571|perfect_dup|FALSE|FALSE (ssRNA)
RNA: GGGAGUUCUACAGUCCGACGAUCCCCAUUAAGUCAGUUUCGAUCUUCAAACUGUGCCUUGUUUUUUAAAAGAUAAGAUGCUAGAAAUUCAAUGGGAUUUGGUGGUCUUUCCUUUGCAAGCACAGCAAGUCCCUGUAAUAAGAUCAACAGAGGAUUGAGCAUCA
B18: chr12:48362563:48362564:+_ENSG00000134291_ENST00000256686|hu_hu|hu_hu_hu_mus_False|38_68 (ssRNA)
RNA: GGGAGUUCUACAGUCCGACGAUCUCCGUCAAGCCCUUCGAUAGACCCUUGCGGGGGAAACUGUAAUAAUUCUAACUGGGGAAGGAAAAGAAACGCCAACACACUUUCAAAAAGCGGGGGUGGGGUGAGGCGGGAGGGGGAGGUCAACAGAGGAUUGAGCAUCA
B19: chr1:220276048:220276049:+_ENSG00000067704_ENST00000302637|hu_hu|hu_hu_hu_mus_True|1_48 (ssRNA)
RNA: GGGAGUUCUACAGUCCGACGAUCGCAAAUUGCCUGGUUGGCGGGAAUUGUCCAAGGCUGGGUGGUCCAAACUAAAACGCUAACAGGAGAUGAACCAUCUGUAAGAGACUCCAACUUCGGAGGAGGUCUCAGGAGGGGAAAUUUCAACAGAGGAUUGAGCAUCA
B20: chr11:100643421:100643422:-_ENSMUSG00000020919_ENSMUST00000004143|mus_mus|FALSE|FALSE (ssRNA)
RNA: GGGAGUUCUACAGUCCGACGAUCACAGGAGGGGGGAAAUUUGAUGUCAAAUUAGGGUGCAAAUGGGAAAAACAUAAAAAAAGACCUGAUUUAGAAACAAAAAACACCACCGGACGUUUGCAGGAAGCCAUUAUCAACACGCUUCAACAGAGGAUUGAGCAUCA
B21: chr4:94236435:94236436:-_ENSMUSG00000028577_ENSMUST00000107107|mus_mus|motif|central (ssRNA)
RNA: GGGAGUUCUACAGUCCGACGAUCCUGGGACAUCAUGAGCUUUUGUCCUGCCUGACUAACAAAGCAAUUGCAAAAAGUCCGGAGAGCAAGCAGCUGGUUUGCUGGCUUUCCUUUGGGGUUCAGAAGGUUGAUAAGAUGGCUGCUCAACAGAGGAUUGAGCAUCA
B22: 25675576_25677131_665_3pUTR_ENSMUSG00000036333_ENSMUST00000066652|mouse|control|control (ssRNA)
RNA: GGGAGUUCUACAGUCCGACGAUCCUUCACACAUUCCAAAUGACCCUUUCGGGCAGCCCACACCAAAGGAGUUGUUCCAUACUUAUCAGAGCAAUUGACUUUCGCACCAUUCUGCAGCAGAAGAUGCACUAUGUCGGCGUGGCCCAACAGAGGAUUGAGCAUCA

This is one part of the list.

This assay concerns the target T1, UNK ZnF1-3. Kind of assay: nsRBNS (natural sequence RNA bind-n-seq); RBNS binding buffer (assumed for nsRBNS): 25 mM Tris pH 7.5, 150 mM KCl, 3 mM MgCl2, 0.01% Triton X-100, 500 ug/ml BSA, 20 U/ml SUPERase-In, 4 C; UNK is unkempt and MSI1 is Musashi-1; names of the RNAs are library labels; protein concentration not given here; high values mean tight binding.
In turn, B1 returned a binding signal of 1.18 enrichment R.

Take B2: the binding signal is 1.44 enrichment R.

As for B3, the binding signal is 1.13 enrichment R. Then B4, with 1.4 enrichment R; and B5, with 0.419 enrichment R; and B6, with 1 enrichment R. Molecule B7 yielded a binding signal of 1.08 enrichment R.

As for B8, the binding signal stood at 1.21 enrichment R.

Turning to B9, the binding signal stood at 1.08 enrichment R. Regarding B10, the binding signal worked out at 1.69 enrichment R. The molecule B11 returned a binding signal of 0.992 enrichment R. As to B12, the binding signal was 0.779 enrichment R. In turn, B13 registered a binding signal of 0.657 enrichment R. The molecule B14 had a binding signal of 0.984 enrichment R. Turning to B15, the binding signal was 0.936 enrichment R. Take B16: the binding signal was determined as 0.825 enrichment R. Turning to B17, the binding signal was 0.99 enrichment R.

Consider B18, for which the binding signal turned out to be 1.76 enrichment R.

On to B19, for which the binding signal is 1.49 enrichment R.

With B20, the binding signal was 3.12 enrichment R. Then B21, with 1.45 enrichment R; and B22, with 1.22 enrichment R.

(Values after PMC12136788.)
